This is an account of results in the antibiotic and cytotoxicity screens of Wong et al. (2023).

One assay has as its system HSkMC. In words: cytotoxicity call (relative viability < 0.9). As to conditions: 10 µM.
The subject of another assay is HepG2. In words: cytotoxicity call (relative viability < 0.9). The conditions noted are these: 10 µM.
The subject of a further assay is S. aureus RN4220. Kind of assay: growth inhibition call (relative growth <= 0.2). As to conditions: 50 µM.

This is one part of the list.

`Cc1noc(C)c1S(=O)(=O)Nc1ccc2c(c1)CC(=O)N([C@@H](C)CO)C[C@@H](C)[C@H](CN(C)C(=O)Nc1ccccc1)O2`: the cytotoxicity call in the assay with HSkMC and with HepG2 was “inactive” each time. Moreover, the growth inhibition call with S. aureus RN4220 was “inactive”.

Consider `C[C@@H]1CCCCO[C@H](CN(C)S(C)(=O)=O)[C@H](C)CN([C@@H](C)CO)C(=O)c2cc(NS(=O)(=O)c3ccc(F)cc3)ccc2O1`, for which the cytotoxicity call in the assay with HSkMC and with HepG2 was “inactive” each time. For the same compound, the growth inhibition call in the assay on S. aureus RN4220 was “inactive”.

On to `Cc1noc(C)c1S(=O)(=O)Nc1ccc2c(c1)C(=O)N([C@H](C)CO)C[C@H](C)[C@H](CN(C)C)OCCCC[C@@H](C)O2`, for which the cytotoxicity call in the assay with HSkMC and with HepG2 was “inactive” each time. Further, in the assay with S. aureus RN4220, the growth inhibition call is “inactive”.

On to `C[C@@H]1CN([C@@H](C)CO)C(=O)Cc2cc(NC(=O)CCCN(C)C)ccc2O[C@@H]1CN(C)S(=O)(=O)c1ccccc1`, for which the cytotoxicity call with HSkMC and with HepG2 was “inactive” in each case. Moreover, the growth inhibition call with S. aureus RN4220 was “inactive”.

For `Cc1noc(C)c1NC(=O)Nc1ccc2c(c1)C(=O)N([C@H](C)CO)C[C@H](C)[C@H](CN(C)C(=O)Nc1ccc(C(F)(F)F)cc1)OCCCC[C@H](C)O2`, the cytotoxicity call with HSkMC and with HepG2 was “inactive” each time. The growth inhibition call with S. aureus RN4220 was “inactive”.

As for `c1ccc(Nc2ncnc3cc(-c4ccccc4)sc23)cc1`, the cytotoxicity call in the assay on HSkMC (human skeletal muscle cells) and in the assay with HepG2 was “inactive” each time. Also, in the assay on S. aureus RN4220, the growth inhibition call is “inactive”.

In the case of `C[C@H]1CN([C@@H](C)CO)S(=O)(=O)c2ccc(Br)cc2O[C@H]1CN(C)C(=O)Cc1ccccn1`, the cytotoxicity call in the assay with HSkMC and with HepG2 was “inactive” in each case. In the assay on S. aureus RN4220, the growth inhibition call was “inactive”.

Regarding `C[C@@H]1CN([C@@H](C)CO)C(=O)c2cccc(NC(=O)Nc3ccc(C(F)(F)F)cc3)c2O[C@H]1CN(C)C(=O)Nc1ccccc1`, the cytotoxicity call with HSkMC and in the assay with HepG2 was “inactive” in each case. The growth inhibition call with S. aureus RN4220 is “inactive”.

With `C[C@H](CO)N1C[C@H](C)[C@@H](CN(C)C(=O)Nc2ccc(C(F)(F)F)cc2)Oc2c(NC(=O)Nc3ccc4c(c3)OCO4)cccc2C1=O`, the cytotoxicity call with HSkMC and in the assay with HepG2 was “inactive” in each case. The growth inhibition call in the assay on S. aureus RN4220 was “inactive”.

`CC(C)NC(=O)N(C)C[C@@H]1Oc2ccc(NC(=O)Nc3ccc4c(c3)OCO4)cc2C(=O)N([C@@H](C)CO)C[C@@H]1C`: in the assay with HSkMC, the cytotoxicity call was “inactive”. Further, the cytotoxicity call with HepG2 is “active”. In addition, in the assay on S. aureus RN4220, the growth inhibition call is “inactive”.
